# ± gives the standard deviation of the averaged measurements. Some of the results follow.
# Test system: PfAP2-EXP AP2 domain (GST-tagged)
# Test: gcPBM binding intensity (ln(normalized median fluorescence intensity)); higher = stronger DNA binding
# Method in brief: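 Each value is the highest Masliner-normalised natural-log median intensity across replicate spots of either orientation of a probe. The probes were primer-extended double-stranded 36-bp intergenic genomic sequences on an Agilent 4 × 180k array, alongside negative controls, exposed for 1 h to GST-tagged P. falciparum DNA-binding domains expressed in E. coli. Bound protein was picked up with Alexa488 anti-GST antibody and scanned at 488 nm.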
row,Sequence,gcPBM binding intensity (ln)
1,AAGAAAAATGTGTTTTTTTTTTTTTTTTTTTTCAAT [TGCATGCA_negctrl_site404],7.85 ± 0.47
2,TATAAATATAAATACACACACACACGCCAAAGCGTA [CACACA_site6181],8.49 ± 0.36
3,TTTTTTTATTTTTGTTGTACTTATAATTCTGTAAAA [XGTACX_site7344],8.77 ± 0.43
4,TACGTTATATACAACTGTACTTGGATAATTATTAAC [XGTACX_site5614],8.56 ± 0.31
5,TACAAATTAATATGTACACACAAATATAAATATGTA [CACACA_site7016],8.42 ± 0.33
6,AAGTTTTTTTCTTTTTTTCTCTCTTTTTTTTTTTTT [XGTACX_negctrl_site613],8.19 ± 0.51
7,TTTTCTTTTTTGAACTGTACGCGTAAATTTAAAAAG [XGTACX_site882],8.57 ± 0.26
8,GATATGATTAACTTATGTTATTCTTGATGATTACGT [CACACA_negctrl_site354],8.45 ± 0.35
9,TTTTTTATTTATTGTTATACATCTTACTACTTATAA [GTGCAC_negctrl_site381],8.73 ± 0.38
10,AATATATTTATATATAGTACTTTTATAATATCGTTT [XGTACX_site6658],8.3 ± 0.33
11,AATACACATAATACATGTACTCACATTGTTATAACA [XGTACX_site4129],8.88 ± 0.46
12,AAATATTTTTTAATGTGTACATAGAACATATATATA [XGTACX_site3136],8.55 ± 0.35
13,ATAATATATATATTATGTACATATAAATTTTTTTTT [XGTACX_site5826],8.37 ± 0.38
14,TATATACCTATATATACACACAAATACATAAGCTTC [CACACA_site1369],8.64 ± 0.4
15,TTTTTTAAAAAACAAACACACACGTAGAAAAAAAAA [CACACA_site826],8.94 ± 0.51
16,TAATTATATGGATACACACACATACATTTACATAAC [CACACA_site5744],8.68 ± 0.43
17,ACTTATTTATTTTTAGTGCATTTAGTTTTATTTTAT,9.12 ± 0.12
18,TATAACTATAAAAGGAGTACTATATATATATATATA [XGTACX_site1388],9.98 ± 0.32
19,TAAAAAGAAAAAAAGAGTACAAACAAAATAATAATT [XGTACX_site6071],8.89 ± 0.41
20,TATTTGCAATGCAAATGTACATGAATTTTTTTAATG [XGTACX_site7474],8.48 ± 0.26
21,TCTACAAAATTATCATGTACATATTATTATAATTAT [XGTACX_site6585],8.73 ± 0.48
22,AATAGTACAAAAAAAAAAAAAAAAAAAAAAAAAAAA [CACACA_negctrl_site1376],7.97 ± 0.42

row,Sequence,gcPBM binding intensity (ln)
1,AGTATACACAAACACACACACACAAAAAAAAAAAAA [CACACA_site8036],8.21 ± 0.47
2,GAATGAATGATAAATTTTTTTTTCTTTTTTTTTTTG [CACACA_negctrl_site333],7.97 ± 0.49
3,TGTTATATATATACAAACATACACATTTATAAACAA [TGCATGCA_negctrl_site235],8.8 ± 0.52
4,GTTCAAATTCTTATACCTTTTTATTGAGCCATAATA [CACACA_negctrl_site210],8.65 ± 0.44
5,TTATGATCATTTATATGTACACATAATTTTTGTGCT [XGTACX_site5568],8.66 ± 0.34
6,TATTAATTTCTTTTTTCTCATCACTTTCAAAATGAA [CACACA_negctrl_site1055],8.5 ± 0.45
7,AAAAAAAGAAAAAAAACACACACAAATATAAATAAA [CACACA_site8309],8.59 ± 0.66
8,AGCATATATTAAACATGTACATAAATATATTATATA [XGTACX_site1451],8.61 ± 0.2
9,AGAGAAGAAAACAAAACACACACATATATCTTAATA [CACACA_site8699],8.63 ± 0.71
10,AACTTAAAAAAAAAAAAAAAAAAAAAAAAAAAAAAA [GTGCAC_negctrl_site34],7.96 ± 0.2
11,AGAAATCATCTGAATTGTACTAACAATTTTTTTTAA [XGTACX_site6191],8.26 ± 0.2
12,ATAAAATGGGCAAACACACACAAAAAAAAGATATAT [CACACA_site1648],9 ± 0.44
13,AGGGGCGAAACAAAGGTGCTTTTATAAAATATGTAA,8.84 ± 0.39
14,CCCAATAATTAAACAACACACATATATATCTGTAAT [CACACA_site5667],9.26 ± 0.65
15,TATTATAATAAAATATGTACACACATACACACATAT [XGTACX_site2360],8.8 ± 0.33
16,CTTAAATCTACTATTTGTACATATTTTATTATTAAA [XGTACX_site6151],8.58 ± 0.37
17,TAGATAAAATTAAAATGTACAAACCTTTTCCCTTAT [XGTACX_site1136],8.09 ± 0.35
18,TTTTTTTTATCAAATTGTACATATACAAAGGTGATC [XGTACX_site8054],8.48 ± 0.66
19,ATTTTATTTTTTAATAGTACTCATTTTTTATGTGAA [XGTACX_site5494],8.55 ± 0.39
20,TATATATATATAAAGGTGCATATCTTTACGTATGTC [GTGCAC_site9665],9.99 ± 0.11
21,ATATATATATATGATACATGCATATATTTTTTCTTC [TGCATGCA_site216],9.99 ± 0.13
22,ATATATATATATATATGTACTTATTTATTTTATATA [XGTACX_site8810],10.2 ± 0.24

row,Sequence,gcPBM binding intensity (ln)
1,AACACCAAACAAAGGTGTACATATAGGAAAAAATCT [XGTACX_site1006],8.7 ± 0.47
2,TATCACATATTATGATGTACAAAGATTCTGACTAAT [XGTACX_site2770],8.53 ± 0.56
3,TACACGCAGAAACACACACACACACCCATATATATA [CACACA_site637],8.74 ± 0.28
4,TAGATATGTCTAAAAAGTACTTTCTATAACAATTCT [XGTACX_site6678],8.27 ± 0.42
5,TCATATTATTATATATGTACATACCAATATATTATA [XGTACX_site2988],8.47 ± 0.33
6,TTTCCTTATAAAAATACACACAAACTTTCATTAAAA [CACACA_site5953],8.29 ± 0.45
7,AGAGGGGAAAACATGATGCACTAGTATAACCAAGAA,9.22 ± 0.34
8,ACTCTCTTATATTAAACACACATATATATATGTATA [CACACA_site2703],8.8 ± 0.36
9,TCAAACAAAAAAGAAACACACACTAATTAAATTTTC [CACACA_site1101],8.47 ± 0.49
10,AATAATTTGAAGGTGATAGTATTACATGGGAAATCA [CACACA_negctrl_site301],8.65 ± 0.47
11,AAATCGAACAAATTATGTACTAAAAAAAAAATTTAT [XGTACX_site6399],8.39 ± 0.4
12,GTACATATAAATATTACACACATTTTCATTTTTAAC [CACACA_site1986],8.62 ± 0.52
13,TTATATGCATCCAAAAAGGAATGTTTTTAGAGAATC [CACACA_negctrl_site1062],8.3 ± 0.35
14,ATCTTTCGAACATGTACACACAGAAAAAAAAAAAAA [CACACA_site5393],8.56 ± 0.4
15,TAAAAAGTATATGGTCGTACACTTTTGATTAATACA [XGTACX_site7804],8.36 ± 0.33
16,TGTATAGGTACAATAATTATAGAGTAATTGACATTA [GTGCAC_negctrl_site183],8.37 ± 0.52
17,GTGTAGGCAAAAAGTTGTACGCCTAAAATCTATATA [XGTACX_site8912],8.73 ± 0.43
18,TTATTTTTTTCAACAAGTACTAATACAAAATAAAAC [XGTACX_site6460],8.68 ± 0.3
19,TTGTATTATTAAATTATAAAACCTATAATTATGGAT [GTGCAC_negctrl_site340],8.16 ± 0.47
20,GATTAAATCGATAATACACACTAAATGTAAAACATT [CACACA_site4248],8.43 ± 0.42
21,TGATAACTAAATACATGTACAAATTAAAAAGAAAAA [XGTACX_site3080],8.8 ± 0.44
22,TAATGATTATATGACTGTACATTTGTAGGTATAATT [XGTACX_site3373],8.52 ± 0.32

row,Sequence,gcPBM binding intensity (ln)
1,GCAAAATAAAGAAGCACACAAAAATGAAATATATAT [CACACA_site3651],8.85 ± 0.53
2,TTTAATTAATAATAATATAAATTGTTCTTTTTTTTT [GTGCAC_negctrl_site176],7.88 ± 0.4
3,CATATTTATAAATATAAACACACAACATTATATGCA [CACACA_site9065],8.68 ± 0.42
4,ATTTATATATATCATACACACTAATATGTATATTAT [CACACA_site5816],8.47 ± 0.43
5,AAAAAAAATACATACATACACACATATATATATATA [CACACA_site912],9.98 ± 0.38
6,TCTTGGTATATTCAATATATGATTTATATAATTCAA [CACACA_negctrl_site818],8.38 ± 0.35
7,ACTAGTAAATTTATATGTACATATATATATATATAG [XGTACX_site2502],8.68 ± 0.24
8,TATACGTAATAATATGCACACAAATAAACTTTATAA [CACACA_site9166],8.68 ± 0.32
9,ATATATAATATAATATGTACATATAATCAATCCTGT [XGTACX_site8694],8.48 ± 0.28
10,ATTTAGTATTCGAAACGTACACATATATATATATAT [XGTACX_site3910],10.2 ± 0.4
11,ATATTTTTTTTCTTCACACACATGAGTTATAAATAA [CACACA_site7498],8.82 ± 0.37
12,AATGAAACAATACCCAGTAAAAAAAAAAAATAAATA [TGCATGCA_negctrl_site205],8.34 ± 0.83
13,TGTAATCTGGAGAAGAGTACACAGTATCTGGTAGCT [XGTACX_site4935],8.43 ± 0.34
14,GGACGTATTAAAAGGCGTACACTAAATATTTTATGT [XGTACX_site146],8.52 ± 0.28
15,TAATATTTATATAATTGTACTTTGTTTGTAAATCCA [XGTACX_site7292],8.2 ± 0.53
16,TATTTATATAATCCTATAATATTACTACTATCTTTA [GTGCAC_negctrl_site342],8.29 ± 0.4
17,AAGATAATTACGCACACACACACACGCCCACAACTA [CACACA_site7255],8.85 ± 0.33
18,ATTATAATTTTGTAAAGTACATATTATTATATATTA [XGTACX_site7191],8.04 ± 0.31
19,AAGGTAAAATATAAGTGTACTTTTTCTTAATCTTCG [XGTACX_site514],8.31 ± 0.15
20,ATACACAAATGCATACGTACATATATATATATATAT [XGTACX_site3504],10.2 ± 0.33
21,ATGTAATATGTTCATGCATGTAAAATTACATTTAGA [TGCATGCA_site852],9.01 ± 0.3
22,TAAAACAAAATAACATGTACAAAAAAAAAAAAAAAA [XGTACX_site2915],8.2 ± 0.49

# Source: the supplement of paper PMC11417369
